From PubChem BioAssay AID1645887 (National Center for Advancing Translational Sciences (NCATS), 2021)
Where “and” joins values, the source holds several entries; their conditions need not be identical. Identical values can stand only once. Out of some 16,000 compounds screened, about 40 (0.2%) were called active. Another 1% or so got no clear call; they are omitted. The call rests on the fitted dose curve; in most records, active means well fitted activation curve with a large enough effect; inconclusive means small, poorly fitted or top-dose-only effect, or another doubt; inactive means no such curve, though single readings can be large or run the other way. The list shows a part of the results.

target: Rap guanine nucleotide exchange factor 4 (Homo sapiens) (UniProt Q8WZA2); assay: Validation qHTS for agonist of cAMP-regulated guanine nucleotide exchange factor 4 (EPAC2); conditions: EPAC2 Rap1B BODIPY-GDP exchange, fluorescence; activation: hits give high values;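 further: exchange makes BODIPY-GDP fluorescence drop when released from Rap1B; series mostly up to about 150 µM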
In short: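 Fluorescent exchange assay: 100 nM EPAC2 with 250 nM RAP1B-BODIPY-GDP and 50 uM GDP; compound added, 5 min at room temperature, then read (ex 480/em 540 nm) every 5 min for 30 min. Normalized to 6.5 mM cAMP agonist control.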
On the % scale 0 is the no-effect control and ±100 the full control effect.

Chain of UniProt Q8WZA2 (Q8WZA2 whole entry, looked up): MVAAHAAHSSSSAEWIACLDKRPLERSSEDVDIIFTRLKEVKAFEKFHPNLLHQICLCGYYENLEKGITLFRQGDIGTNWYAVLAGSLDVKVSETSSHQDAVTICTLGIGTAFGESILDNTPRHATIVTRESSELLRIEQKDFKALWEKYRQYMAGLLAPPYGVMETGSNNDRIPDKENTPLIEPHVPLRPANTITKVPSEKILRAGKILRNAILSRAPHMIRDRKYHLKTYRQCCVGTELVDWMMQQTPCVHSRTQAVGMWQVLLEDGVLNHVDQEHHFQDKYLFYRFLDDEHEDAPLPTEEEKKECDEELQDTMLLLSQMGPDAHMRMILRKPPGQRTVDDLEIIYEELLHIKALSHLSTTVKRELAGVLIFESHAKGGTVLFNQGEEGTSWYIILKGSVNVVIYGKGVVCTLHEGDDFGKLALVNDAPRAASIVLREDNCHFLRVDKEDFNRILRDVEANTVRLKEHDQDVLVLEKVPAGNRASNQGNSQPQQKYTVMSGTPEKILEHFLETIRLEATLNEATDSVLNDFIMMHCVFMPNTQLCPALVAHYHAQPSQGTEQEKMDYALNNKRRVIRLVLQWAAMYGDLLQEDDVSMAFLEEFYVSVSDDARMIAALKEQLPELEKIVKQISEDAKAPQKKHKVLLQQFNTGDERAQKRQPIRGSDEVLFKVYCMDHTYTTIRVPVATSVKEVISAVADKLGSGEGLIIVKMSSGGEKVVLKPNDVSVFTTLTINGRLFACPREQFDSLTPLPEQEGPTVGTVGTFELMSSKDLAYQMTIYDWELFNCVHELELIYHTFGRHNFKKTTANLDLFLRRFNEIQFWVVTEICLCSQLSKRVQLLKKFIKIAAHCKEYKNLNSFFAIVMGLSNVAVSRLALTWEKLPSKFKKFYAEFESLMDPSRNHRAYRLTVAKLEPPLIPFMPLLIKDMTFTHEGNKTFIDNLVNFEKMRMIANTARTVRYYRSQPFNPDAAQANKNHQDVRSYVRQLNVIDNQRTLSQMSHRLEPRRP

activation, inactive:
COC(C)=O 11.2%
COc1cccc(OC)c1CN1CCC2(CCC(CNC(=O)c3ccccc3)O2)CC1 (centres undefined) -3.17%
N#C/C(=C1\SCC(c2ccccc2Cl)S1)n1ccnc1 (centres undefined) -11.9%
C[N+]1(C)CCCC(OC(=O)C(O)(c2ccccc2)c2ccccc2)C1 (centres undefined) -9.1% and -1.8%
Cc1cnc(-n2ncc(C(=O)N(C)CC3COCCO3)c2C2CC2)nc1-c1cccs1 (centres undefined) -5.84%
CN1CCN2c3ccccc3Cc3ccccc3[C@@H]2C1 -8.6%
CCCCCCCCCCCCC/C=C/[C@@H](O)[C@H](CO)NC(=O)CCCCCCCCCCCCCCC -5.54%
CC1CC[C@]2(CO)CC[C@]3(C)C(=CCC4[C@@]5(C)CCC(O)C(C)(C)C5CC[C@@]43C)C2C1C (some centres undefined) 6.91%
CCC1CN(CC(=O)NCc2n[nH]c3c2CCCCC3)Cc2cc(OC)ccc2O1 (centres undefined) -6.84%
O=C(CCCN1CCC(O)(c2ccc(Br)cc2)CC1)c1ccc(F)cc1 3.56%
CNCC[C@H](Oc1cccc2ccccc12)c1cccs1 -6.77%
CC(=O)ON(C(C)=O)S(=O)(=O)c1ccc(Cl)cc1 -17.8%
COc1cccc(Nc2ncc3nc(CCc4ccccc4)c(=O)n(Cc4cccs4)c3n2)c1 2.04%
CN(C)Cc1ccccc1-c1cc(N(C)Cc2ccco2)ncn1 -4.14%
COc1cccc(-c2ccnc(-n3ncc(C(=O)NCC(C)(C)CN(C)C)c3C)n2)c1 -9.64%
CC(Oc1ccccc1)C(=O)NCC1Cc2cc(F)cc(-c3ccccn3)c2O1 (centres undefined) 6.61%
c1ccc(-c2ccc(N3CC4(CCNCC4)C3)cc2)cc1 9.91%
OCCCNc1ccccc1 -9.45%
CC(=O)c1ccc2c(c1)N(CCCN1CCC(CCO)CC1)c1ccccc1S2 -16.7%
COc1cccc(CN(CC(=O)NCc2ccccc2)S(=O)(=O)CCl)c1 -20.8%
O=C(NCC1(N2CCOCC2)CCCCC1)c1cnn(-c2nccc(-c3cccs3)n2)c1C1CC1 -2.82%
Cc1[nH]c2c(F)cccc2c1CC(=O)NCCN1Cc2ccccc2OC(C)C1 (centres undefined) -2.07%
CO[C@@]1(NC(=O)Cc2cccs2)C(=O)N2C(C(=O)O)=C(COC(N)=O)CS[C@@H]21 5.02% and -7.08%
O=c1c(-c2ccc(F)cc2)nc2cnc(Oc3ccccc3)nc2n1C[C@H]1CCCO1 8.71%
CS(=O)(=O)N1CCC2(CCN(Cc3ccncc3)CC2)CC1 -10.9%
NC1(C(=O)O)CCC1 -11.1%
CC(Cc1ccccc1)(NC(=O)CN)c1ccccc1 (centres undefined) -41.7%
O=c1cnc2cnc(Oc3ccccc3)nc2n1Cc1ccc(F)cc1 2.4%
C[C@@H](CSc1ccccc1)CN1CC[C@H](NC(=O)OCc2ccccc2)CCC1=O -28%
COCCNc1ncnc2ccc(-c3cccnc3)cc12 -19.7%
COc1cccc(-c2nc3cc4c(cc3cc2CN(C(=O)c2cccs2)C2CC2)CCC4)c1OC -23.5%
COc1ccc(Cc2cnc(N)nc2N)cc1OC -9.49%
COc1ccccc1CNc1ncncc1-c1ccccc1CN(C)C -6.39%
COC(=O)C[C@H]1c2cc(F)ccc2S(=O)(=O)N1Cc1ccccc1OC -27.9%
CC(C)C[C@H](CO)N(Cc1ccccc1)S(=O)(=O)N(Cc1ccccc1)[C@@H](CO)CC(C)C -12.8%
C[N+]1(CC(=O)c2ccc(Cl)cc2)CCOCC1 -10.8%
O=C(O)CCC/C=C\C[C@@H]1[C@@H](/C=C/[C@@H](O)COc2cccc(C(F)(F)F)c2)[C@H](O)C[C@@H]1O -4.02%
Clc1ccccc1-c1nc(NCCN2CCOCC2)c2ccccc2n1 3.1%
Cc1ccccc1-c1cc(NCCN2CCOCC2)ncn1 -22.6%
COc1cccc(OC)c1OCCNCC1COc2ccccc2O1 (centres undefined) 1.86% and 4.97% and 12.8%
CC(C)C1NC(C(=O)O)Cc2c1[nH]c1ccccc21 (centres undefined) 5.89%
CN(C)C(=O)c1ccc(-c2ccc3ncnc(NC4CC4)c3c2)cc1 -6.73%
CC[C@@H]1OC(=O)[C@@H](C)[C@H](O[C@H]2C[C@@](C)(OC)[C@@H](O)[C@H](C)O2)C(C)[C@H](O[C@H]2O[C@@H](C)C[C@@H](N(C)C)[C@@H]2O)[C@@](C)(O)C[C@H](C)C(=O)[C@@H](C)[C@H](O)[C@@]1(C)O (some centres undefined) 7.16%
CCOc1ccc(C(=O)c2ccc(OC)c(O)c2O)cc1 2.14%
CC1C(O)CC2C(C(=O)O)=CO[C@@H](O[C@H]3OC(CO)C(O)C(O)C3O)C21 (some centres undefined) -11.1%
O=c1c(CCc2ccccc2)nc2cnc(N3CCOCC3)nc2n1Cc1cccs1 -7.31%
O=C1NCN(c2ccccc2)C12CCN(CCCC(c1ccc(F)cc1)c1ccc(F)cc1)CC2 22.8% and 12.3%
CN1CCN(c2ncc3ncc(=O)n(Cc4cccs4)c3n2)CC1 -3.76%
Cc1nn(-c2ccccc2)c(C)c1CC(=O)NCC1Cc2cc(F)cc(-c3cccnc3)c2O1 (centres undefined) -6.59%
N#Cc1cccc(-c2nc(NCCN3CCOCC3)c3ccccc3n2)c1 -16.9%
CC(=O)NC(CCC(=O)O)C(=O)O (centres undefined) -5.72%
O=c1c(-c2ccccc2)nc2cnc(Nc3ccccc3)nc2n1C[C@H]1CCCO1 10.6%
CCc1cc[n+](CC(=O)c2ccc(F)cc2)cc1C(=O)O -29.4%
COc1cc(CN2CCC3(CCC(CNC(=O)c4ccco4)O3)CC2)cc(OC)c1 (centres undefined) 4.43%
NC(Cc1c[nH]c2ccccc12)C(=O)NCC(=O)O (centres undefined) -1.77%
Cc1noc(C)c1-c1nc(N2CCOCC2)c2ccccc2n1 -19%
O=C(c1cc(C(F)(F)F)cc(C(F)(F)F)c1)N1CCC2(CC1)CN(c1ccccc1)C2 -30%
CC(=O)CCC(=O)O 4.7%
CC(CN1c2ccccc2Sc2cccnc21)N(C)C (centres undefined) -7.67%
Cc1c(C(=O)N2CC3CCC2C3)sc2ncnc(NCCc3ccccn3)c12 (centres undefined) -9.05%
O=c1c(-c2cccs2)nc2cnc(N3CCOCC3)nc2n1-c1ccccc1 17.6%
CC(C)(C)C(=O)OCOC(=O)[C@@H]1N2C(=O)[C@@H](NC(=O)[C@H](N)c3ccccc3)[C@H]2SC1(C)C -49.1%
O=C(OCc1ccccc1)c1ccc(O)cc1 -45%
COc1ccc(-c2cn(Cc3ccc(C)cc3)nn2)cc1 -10.3%
N#Cc1cccc(-c2nc3cnc(N4CCNCC4)nc3n(C3CC3)c2=O)c1 19.4%
CN(C)CCC(O)(c1ccccc1)c1ccccc1Cl (centres undefined) 6.55%
CCN1CCCC1CNC(=O)c1cnn(-c2nccc(-c3cc4ccccc4o3)n2)c1C1CC1 (centres undefined) 5.66%
N=C1N=C(N)c2cc3ccccc3cc21 -8.12%
c1ccc(C(c2ccccc2)N2CC[C@@]3(CCCNC3)C2)cc1 -7.19%
COCCn1c(=O)c(-c2cccc(C#N)c2)nc2cnc(OC)nc21 -4.11%
Nc1ccc(-c2ccc3ccccc3n2)cc1 -42.8%
Cc1onc(-c2ccc3c(c2)OCO3)c1-c1ccc2[nH]ccc2c1 -19.7%
COc1ccc(-n2c(=O)c(-c3cn(C)c4ccccc34)nc3cncnc32)cc1 -11.7%
O=[N+]([O-])c1ccc2c(c1)S(=O)(=O)C=C2 -15.8%
C=CC1=C(C(=O)O)N2C(=O)[C@@H](NC(=O)/C(=N/OCC(=O)O)c3csc(N)n3)[C@H]2SC1 (stereo in doubt) -0.711%
Clc1ccccc1-c1ccc2ncnc(NCc3cccnc3)c2c1 -5.6%
O=C(Nc1nc2ccccc2n1CCN1CCOCC1)c1cccc([N+](=O)[O-])c1 -8.72%
O=C(c1ccco1)N1CCC2(CC1)CCN(c1ccncc1)CC2 -18.3%
Cc1ccccc1-c1cc(NCc2cccnc2)ncn1 -4.72%
CC(C)COC(=O)OCN1C(=O)CN(CCN2CC(=O)N(COC(=O)OCC(C)C)C(=O)C2)CC1=O -4.64% and -34.6%
O=S1(=O)CCOC[C@H](c2ccccc2)N1Cc1ccc(Cl)cc1Cl 3.29%
CC(=O)SCC[N+](C)(C)C -15%
NC(=O)Cc1cccc(C(=O)c2ccccc2)c1N -6.98%
CN(Cc1ccco1)c1ncncc1-c1ccccc1Cl 0.819%
O=C(Nc1ccccc1)O[C@@H]1C[C@H]2CCC(=O)N3CC[C@@H](C1)[C@@H]23 -20.5%
Cc1cc(C(=O)Nc2cccc(-c3nc(CNC(=O)c4cc5ccccc5[nH]4)c(C)o3)c2)c(C)o1 -0.97%
CCCCC[C@H](O)/C=C/[C@H]1C=CC(=O)[C@@H]1CCCCCCC(=O)O -3.6%
CCCCOC(=O)c1ccc(N)cc1 -11.1%
NCCCCCCNS(=O)(=O)c1ccc2c(Cl)cccc2c1 -0.832%
